Source: publication PMC9911399, “Two distinct binding modes provide the RNA-binding protein RbFox with extraordinary sequence specificity”
Residue numbers refer to the chain shown, from its start. This is one part of the list.

T1: RBFOX1 RRM RbFoxmut (Fox-RRM*) (Homo sapiens, UniProt Q9NWB1 109-208, R118D;E147R;N151S;E152T)
T1 sequence: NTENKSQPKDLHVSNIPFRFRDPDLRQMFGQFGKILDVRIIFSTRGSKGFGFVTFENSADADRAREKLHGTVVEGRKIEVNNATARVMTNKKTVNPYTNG

B1: UUUCGAA (DNA:RNA)
RNA: GGGAGACCGGAAUUCAGAUUGUCCUUUCGAAUUAAAUCCCGUCGUAGCCACCA
DNA 1: CAATCTGAATTCCGGTCTCCC
DNA 2: TGGTGGCTACGACGGGATT
B2: UGCCAAC (DNA:RNA)
RNA: B1 RNA with U26G, U27C, G29A, A31C
DNA 1: CAATCTGAATTCCGGTCTCCC
DNA 2: TGGTGGCTACGACGGGATT
B3: AUUUCCC (DNA:RNA)
RNA: B1 RNA with U25A, C28U, G29C, A30C, A31C
DNA 1: CAATCTGAATTCCGGTCTCCC
DNA 2: TGGTGGCTACGACGGGATT
B4: CCGCACA (DNA:RNA)
RNA: B1 RNA with U25C, U26C, U27G, G29A, A30C
DNA 1: CAATCTGAATTCCGGTCTCCC
DNA 2: TGGTGGCTACGACGGGATT
B5: CUACCAA (DNA:RNA)
RNA: B1 RNA with U25C, U27A, G29C
DNA 1: CAATCTGAATTCCGGTCTCCC
DNA 2: TGGTGGCTACGACGGGATT
B6: UACGUUC (DNA:RNA)
RNA: B1 RNA with U26A, U27C, C28G, G29U, A30U, A31C
DNA 1: CAATCTGAATTCCGGTCTCCC
DNA 2: TGGTGGCTACGACGGGATT
B7: CCGCUCC (DNA:RNA)
RNA: B1 RNA with U25C, U26C, U27G, G29U, A30C, A31C
DNA 1: CAATCTGAATTCCGGTCTCCC
DNA 2: TGGTGGCTACGACGGGATT
B8: GCCAGUC (DNA:RNA)
RNA: B1 RNA with U25G, U26C, U27C, C28A, A30U, A31C
DNA 1: CAATCTGAATTCCGGTCTCCC
DNA 2: TGGTGGCTACGACGGGATT
B9: CCUAUCG (DNA:RNA)
RNA: B1 RNA with U25C, U26C, C28A, G29U, A30C, A31G
DNA 1: CAATCTGAATTCCGGTCTCCC
DNA 2: TGGTGGCTACGACGGGATT
B10: ACGCGUA (DNA:RNA)
RNA: B1 RNA with U25A, U26C, U27G, A30U
DNA 1: CAATCTGAATTCCGGTCTCCC
DNA 2: TGGTGGCTACGACGGGATT
B11: CAGCGAG (DNA:RNA)
RNA: B1 RNA with U25C, U26A, U27G, A31G
DNA 1: CAATCTGAATTCCGGTCTCCC
DNA 2: TGGTGGCTACGACGGGATT
B12: AUUGCUG (DNA:RNA)
RNA: B1 RNA with U25A, C28G, G29C, A30U, A31G
DNA 1: CAATCTGAATTCCGGTCTCCC
DNA 2: TGGTGGCTACGACGGGATT
B13: GCUCAUC (DNA:RNA)
RNA: B1 RNA with U25G, U26C, G29A, A30U, A31C
DNA 1: CAATCTGAATTCCGGTCTCCC
DNA 2: TGGTGGCTACGACGGGATT
B14: CUUGAGG (DNA:RNA)
RNA: B1 RNA with U25C, C28G, G29A, A30G, A31G
DNA 1: CAATCTGAATTCCGGTCTCCC
DNA 2: TGGTGGCTACGACGGGATT
B15: CCCGACA (DNA:RNA)
RNA: B1 RNA with U25C, U26C, U27C, C28G, G29A, A30C
DNA 1: CAATCTGAATTCCGGTCTCCC
DNA 2: TGGTGGCTACGACGGGATT
B16: UAUGGAU (DNA:RNA)
RNA: B1 RNA with U26A, C28G, A31U
DNA 1: CAATCTGAATTCCGGTCTCCC
DNA 2: TGGTGGCTACGACGGGATT
B17: UGGGUCA (DNA:RNA)
RNA: B1 RNA with U26G, U27G, C28G, G29U, A30C
DNA 1: CAATCTGAATTCCGGTCTCCC
DNA 2: TGGTGGCTACGACGGGATT
B18: AUCUGUA (DNA:RNA)
RNA: B1 RNA with U25A, U27C, C28U, A30U
DNA 1: CAATCTGAATTCCGGTCTCCC
DNA 2: TGGTGGCTACGACGGGATT
B19: GUACUCA (DNA:RNA)
RNA: B1 RNA with U25G, U27A, G29U, A30C
DNA 1: CAATCTGAATTCCGGTCTCCC
DNA 2: TGGTGGCTACGACGGGATT
B20: CUCAAUG (DNA:RNA)
RNA: B1 RNA with U25C, U27C, C28A, G29A, A30U, A31G
DNA 1: CAATCTGAATTCCGGTCTCCC
DNA 2: TGGTGGCTACGACGGGATT
B21: AUGUGAA (DNA:RNA)
RNA: B1 RNA with U25A, U27G, C28U
DNA 1: CAATCTGAATTCCGGTCTCCC
DNA 2: TGGTGGCTACGACGGGATT
B22: CUGGAUG (DNA:RNA)
RNA: B1 RNA with U25C, U27G, C28G, G29A, A30U, A31G
DNA 1: CAATCTGAATTCCGGTCTCCC
DNA 2: TGGTGGCTACGACGGGATT
B23: GCGCUCA (DNA:RNA)
RNA: B1 RNA with U25G, U26C, U27G, G29U, A30C
DNA 1: CAATCTGAATTCCGGTCTCCC
DNA 2: TGGTGGCTACGACGGGATT
B24: GUUAUUU (DNA:RNA)
RNA: B1 RNA with U25G, C28A, G29U, A30U, A31U
DNA 1: CAATCTGAATTCCGGTCTCCC
DNA 2: TGGTGGCTACGACGGGATT
B25: AUGAGGG (DNA:RNA)
RNA: B1 RNA with U25A, U27G, C28A, A30G, A31G
DNA 1: CAATCTGAATTCCGGTCTCCC
DNA 2: TGGTGGCTACGACGGGATT
B26: GGAUUGG (DNA:RNA)
RNA: GGGAGACCGGAAUUCAGAUUGUCCGGAUUGGUUAAAUCCCGUCGUAGCCACCA
DNA 1: CAATCTGAATTCCGGTCTCCC
DNA 2: TGGTGGCTACGACGGGATT
B27: UUGAGAC (DNA:RNA)
RNA: B1 RNA with U27G, C28A, A31C
DNA 1: CAATCTGAATTCCGGTCTCCC
DNA 2: TGGTGGCTACGACGGGATT
B28: AUAUAGC (DNA:RNA)
RNA: B26 RNA with G25A, G26U, U29A, G31C
DNA 1: CAATCTGAATTCCGGTCTCCC
DNA 2: TGGTGGCTACGACGGGATT
B29: GGGCUUC (DNA:RNA)
RNA: B26 RNA with A27G, U28C, G30U, G31C
DNA 1: CAATCTGAATTCCGGTCTCCC
DNA 2: TGGTGGCTACGACGGGATT
B30: AAUCCAA (DNA:RNA)
RNA: B1 RNA with U25A, U26A, G29C
DNA 1: CAATCTGAATTCCGGTCTCCC
DNA 2: TGGTGGCTACGACGGGATT
B31: GUUUCUA (DNA:RNA)
RNA: B1 RNA with U25G, C28U, G29C, A30U
DNA 1: CAATCTGAATTCCGGTCTCCC
DNA 2: TGGTGGCTACGACGGGATT

Target: T1, RBFOX1 RRM RbFoxmut (Fox-RRM*)
Test: EMSA; HiTS-Eq, 1 nM pool, 10 min; buffer printed only for the single-RNA assays: 10 mM Tris pH 7.5, 150 mM NaCl, 3.4 mM EDTA, 0.001% NP-40, 30 C
Settings: tags: His6 N-terminal (pET28a); label: 5' 32P
Method in brief: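 Purified RbFox RRM, wild type or mutant, was incubated for 10 min in 50 µL with 1 nM of a 5′-radiolabelled RNA pool carrying 7 randomized nucleotides, whose flanks were annealed to DNA oligonucleotides, over a series of increasing protein concentrations. Unbound RNA was resolved on 8% native PAGE, cut out, reverse-transcribed, barcoded by PCR and sequenced on an Illumina HiSeq 2500. Relative association constants were derived from changes in read counts for each RNA species versus the control reaction and normalised to the cognate motif.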

Binder	binding signal
B1	0.0789 KA relative to UGCAUGU
B2	0.0569 KA relative to UGCAUGU
B3	0.0481 KA relative to UGCAUGU
B4	0.0974 KA relative to UGCAUGU
B5	0.0752 KA relative to UGCAUGU
B6	0.087 KA relative to UGCAUGU
B7	0.0543 KA relative to UGCAUGU
B8	0.063 KA relative to UGCAUGU
B9	0.109 KA relative to UGCAUGU
B10	0.183 KA relative to UGCAUGU
B11	0.135 KA relative to UGCAUGU
B12	0.117 KA relative to UGCAUGU
B13	0.06 KA relative to UGCAUGU
B14	0.0818 KA relative to UGCAUGU
B15	0.0737 KA relative to UGCAUGU
B16	0.0769 KA relative to UGCAUGU

Binder	binding signal
B17	0.15 KA relative to UGCAUGU
B18	0.175 KA relative to UGCAUGU
B19	0.095 KA relative to UGCAUGU
B20	0.105 KA relative to UGCAUGU
B21	0.118 KA relative to UGCAUGU
B22	0.646 KA relative to UGCAUGU
B23	0.0581 KA relative to UGCAUGU
B24	0.117 KA relative to UGCAUGU
B25	0.0929 KA relative to UGCAUGU
B26	0.219 KA relative to UGCAUGU
B27	0.0589 KA relative to UGCAUGU
B28	0.12 KA relative to UGCAUGU
B29	0.128 KA relative to UGCAUGU
B30	0.049 KA relative to UGCAUGU
B31	0.146 KA relative to UGCAUGU
